Source: the supplement of paper PMC12217912
This is one part of the list. Sequences were assembled here from the parent chain. Inactive controls read about 0.05.

B1: TEV protease; numbered along this chain (parent)
chain: MGESLFKGPRDYNPISSSICHLTNESDGHTTSLYGIGFGPFIITNKHLFRRNNGTLVVQSLHGVFKVKDTTTLQQHLVDGRDMIIIRMPKDFPPFPQKLKFREPQREERICLVTTNFQTKSMSSMVSDTSCTFPSGDGIFWKHWIQTKDGQCGSPLVSTRDGFIVGIHSASNFTNTNNYFTSVPKNFMELLTNQEAQQWVSGWRLNADSVLWGGHKVFMVKPEEPFQPVKEATQL

Variants of: B1
Assay: raw area under fraction-flipped curve 0-4 h after induction (AUC4h, not background-subtracted), DNA-recorder readout of cleavage of the substrate (dimensionless); higher = more cleavage of the substrate by the protease variant
Details: temperature: 34 °C; time window: 0-4 h after rhamnose induction
Procedure: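 In vivo DNA recorder in E. coli TOP10(DE3) ΔrhaA at 34 °C. Each TEVp single-site mutant (parent TEVp 0) is paired with a single-site variant of the 7-mer TEVs (canonical ENLYFQ|S). The substrate sits between flexible linkers in a Bxb1-sfGFP-TEVs-SsrA fusion, so cleavage stabilises Bxb1 and speeds flipping of a recombination array, read by NGS. The value is the raw area under the fraction-flipped curve over 0-4 h after rhamnose induction (AUC4h), with ≥20 reads per time point. It is not background-subtracted; inactive controls average about 0.047.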
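Further: Bxb1 expression induced with 0.2% (w/v) L-rhamnose at OD600 near 0.5, cultures sampled hourly, flipped fraction per protease–substrate barcode pair counted by paired-end Illumina sequencing.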

Row | Variant | area with substrate ENLYFAS | area with substrate ENLYFCS | area with substrate ENLYFDS | area with substrate ENLYFES | area with substrate ENLYFFS | area with substrate ENLYFGS | area with substrate ENLYFHS | area with substrate ENLYFIS | area with substrate ENLYFKS | area with substrate ENLYFLS | area with substrate ENLYFMS | area with substrate ENLYFNS | area with substrate ENLYFPS | area with substrate ENLYFRS | area with substrate ENLYFTS | area with substrate ENLYFVS | area with substrate ENLYFWS | area with substrate ENLYFSS | area with substrate ENLYFYS
1 | V64C | 0.137 | 0.0477 | 0.0675 | 0.045 | 0.0688 | 0.0571 | 0.0534 | 0.06 | 0.0561 | 0.0528 | 0.0747 | 0.0587 | 0.056 | 0.0563 | 0.0601 | 0.066 | 0.0653 |  | 
2 | V64K | 0.0624 | 0.0802 |  | 0.0645 | 0.0666 | 0.0511 | 0.0599 | 0.059 | 0.0729 | 0.0377 | 0.062 |  | 0.039 | 0.0475 | 0.0542 |  | 0.0448 | 0.0602 | 0.0242
3 | D128I | 0.0623 | 0.0767 |  | 0.0677 |  | 0.0371 | 0.0618 | 0.0634 |  | 0.0596 | 0.0993 |  | 0.0617 | 0.0709 | 0.0579 | 0.0496 |  |  | 
4 | D128C | 0.0627 | 0.0593 |  |  |  | 0.0601 |  | 0.0532 | 0.0514 | 0.0498 | 0.0947 | 0.0634 | 0.0623 | 0.0507 | 0.0584 | 0.0593 |  | 0.0572 | 0.0588
5 | D128E | 0.0634 | 0.0593 |  | 0.0806 | 0.0708 | 0.0634 | 0.0648 | 0.0653 | 0.078 | 0.0577 | 0.0612 |  | 0.0648 |  | 0.0663 |  | 0.0526 | 0.0574 | 
6 | D128M | 0.0534 | 0.0653 |  | 0.0638 | 0.0688 | 0.0618 |  | 0.0585 | 0.0524 | 0.074 | 0.08 | 0.0807 | 0.0591 |  | 0.0559 | 0.0609 | 0.0668 |  | 0.0529
7 | D128L | 0.0467 | 0.067 | 0.0659 |  | 0.0706 |  | 0.0548 | 0.0697 | 0.0668 |  |  | 0.077 | 0.0545 | 0.0771 | 0.0613 | 0.0654 | 0.0605 | 0.0582 | 
8 | G80P | 0.0617 |  |  | 0.107 |  |  |  | 0.0603 |  |  | 0.0521 |  | 0.0484 |  |  |  |  |  | 
9 | G80T | 0.0527 | 0.0639 |  | 0.0649 | 0.0706 | 0.0711 |  | 0.056 | 0.0596 |  | 0.0608 | 0.0629 | 0.0548 | 0.0513 | 0.0531 |  | 0.0464 | 0.0575 | 
10 | G80N | 0.0424 | 0.0619 | 0.0465 | 0.117 | 0.0609 | 0.0549 | 0.0527 | 0.0439 |  |  | 0.0668 | 0.0657 | 0.0531 |  | 0.0627 | 0.0559 |  |  | 
11 | G80C | 0.0514 | 0.069 | 0.0641 | 0.0584 | 0.0712 |  | 0.0457 | 0.0558 |  |  | 0.0713 |  | 0.0487 | 0.0586 | 0.058 |  | 0.0519 |  | 0.0601
12 | R81T | 0.067 | 0.0555 | 0.0558 | 0.0624 | 0.0614 | 0.0685 | 0.0648 | 0.0576 | 0.0698 |  | 0.052 | 0.0606 | 0.0654 | 0.0478 | 0.0499 |  | 0.0606 |  | 0.0597
13 | R81N | 0.0829 |  | 0.0622 | 0.0437 |  |  | 0.0527 | 0.0541 |  | 0.0611 | 0.0639 | 0.0472 | 0.0689 | 0.0581 | 0.0629 | 0.0588 | 0.0577 |  | 
